Data reported in patent publication US10647702B2, “Aryl-substituted imidazoles” (St. Jude Children's Research Hospital, priority 2010, dated 2020).
Like-named read-outs stand apart in the source and are kept apart here.

Assays:
hMDMX = target: T1, hMDMX (Homo sapiens, UniProt O15151); assay: Fluorescence polarization (FP) assay, MDMX-p53 inhibition; format: binding; details: for IC50: GST-MDMX, Texas Red-labeled p53 peptide
T1 construct: mouse and human MDMX (amino acids 1-185); made in house; host or cells: Escherichia coli BL21 (DE3)
T1 sequence (O15151 1-185): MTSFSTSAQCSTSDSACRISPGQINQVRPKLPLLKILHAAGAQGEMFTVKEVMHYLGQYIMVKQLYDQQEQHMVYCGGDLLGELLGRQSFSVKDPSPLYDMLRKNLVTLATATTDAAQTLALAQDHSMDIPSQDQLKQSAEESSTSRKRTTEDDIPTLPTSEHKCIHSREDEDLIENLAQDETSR

[1] = Parallel Artificial Membrane Permeability Assay (PAMPA); format: in vitro ADME
Protocol: Parallel Artificial membrane Permeability Assay (PAMPA) was conducted by Biomek FX lab automation workstation (Beckman Coulter, Inc., Fullerton, Calif.) and PAMPA evolution 96 command software (pION Inc., Woburn, Mass.). The detailed method is described as following. 3 μL of 10 μM test compound stock in DMSO was mixed with 597 μL of citrate phosphate buffered saline (isotonic) to make diluted test compound. 150 μL of diluted test compound was transferred to a UV plate (pION Inc., Woburn, Mass.) and the UV spectrum was read as the reference plate. The membrane on pre-loaded PAMPA sandwich (pION Inc., Woburn, Mass.) was painted with 4 μL GIT lipid (pION Inc., Woburn, Mass.). The acceptor chamber was then filled with 200 μL ASB (acceptor solution buffer, pION Inc., Woburn, Mass.), and the donor chamber was filled with 180 μL diluted test compound. The PAMPA sandwich was assembled, placed on the Gut-box and stirred for 30 minutes. Aqueous Boundary Layer was set to 40 μm for stirring. The UV spectrum (250-500 nm) of the donor and the acceptor were read. The permeability coefficient was calculated using PAMPA evolution 96 command software (pION Inc., Woburn, Mass.) based on the AUC of the reference plate, the donor plate and the acceptor plate. All compounds were tested in triplicates.

Solubility assay (uSOL) = format: physicochemical; details: 18 hours; for uSOL pH 3: pH 3, room temperature; for uSOL pH 7.4: pH 7.4, room temperature
Protocol: Solubility assay was carried out on Biomek FX lab automation workstation (Beckman Coulter, Inc., Fullerton, Calif.) using μSOL Evolution software (pION Inc., Woburn, Mass.). The detailed method is described as following. 10 μL of 10 mM compound stock (in DMSO) was added to 190 μL 1-propanol to make a reference stock plate. 5 μL from this reference stock plate was mixed with 70 μI, 1-propanol and 75 μL citrate phosphate buffered saline (isotonic) to make the reference plate, and the UV spectrum (250 nm-500 nm) of the reference plate was read. 6 μL of 10 mM test compound stock was added to 594 μL buffer in a 96-well storage plate and mixed. The storage plate was sealed and incubated at room temperature for 18 hours. The suspension was then filtered through a 96-well filter plate (pION Inc., Woburn, Mass.). 75 μL filtrate was mixed with 75 μL 1-propanol to make the sample plate, and the UV spectrum of the sample plate was read. Calculation was carried out by μSOL Evolution software based on the AUC (area under curve) of UV spectrum of the sample plate and the reference plate. All compounds were tested in triplicates.

[2] = Simulated gastric fluid (SGF) stability; format: in vitro ADME; details: SGF pH 1 with pepsin, 37° C., up to 48 hr
Protocol: Compound stocks were 10 mM in DMSO. The internal standard was 10 μM warfarin in methanol. 1.4 ml concentrate HCl (37%), 0.4 g NaCl and 0.64 g pepsin were added to 198 ml DI water to make SGF (pH 1). 1.9 ml SGF was added to the columns of 1, 4, 7 and 10 of a 2 ml 96-well deep well plate (pION Inc., MA, #110023); this was the master plate. 1.9 μl compound stock was added to each well with […] and mixed well. Using a multi-channel pipette, 600 μl from the columns of 1, 4, 7 and 10 were taken and added into the rest of the columns (fluids in column 1 added to columns 2 and 3, column 4 into 5 and 6, and so on). From the master plate, 65 μl were taken from each well and added into 8 storage plates (pION Inc., MA, #110323), each for a time point. The storage plates was then incubated at 37° C. and shaken at 60 rpm. Samples were taken at 0 min, 30 min, 1 hr, 2 hr, 4 hr, 8 hr, 24 hr and 48 hr. At each time point, 195 μl internal standard was added to quench the reaction. The plates were then centrifuged at 4000 rpm for 15 min and supernatant was analyzed by UPLC-MS. The compound was detected by SIR and quantitation was based on peak area ratio of test compound vs. the internal standard.

[3] = pH 3, permeability coefficient, read-out: PAMPA pH 3
[4] = pH 7.4, permeability coefficient, read-out: PAMPA pH 7.4

With `COc1ccc(C2=NC(c3cccc(Cl)c3)C(c3ccc(Cl)cc3)N2C(=O)N2CCNC(=O)C2)c(OC(C)C)c1` (stereo not drawn) [SJ000558295-1] the “IC50 value against MDMX in FP assay (in words)” value (hMDMX) was “uM level” and the IC50 (hMDMX) was 9 µM.

For `COc1ccc(C2=N[C@@H](c3cccc(Cl)c3)[C@@H](c3ccc(Cl)cc3)N2C(=O)N2CCNC(=O)C2)c(OC(C)C)c1` [SJ000558295-1], the “R % pH 3” value [1] was 76%, the Papp at 30 min, 0.05 µM [1, 3] was 222 ×10⁻⁶ cm/s and the “R % pH 7.4” value [1] was 78%. For the same molecule, the Papp at 30 min, 0.05 µM [1, 4] was 694 ×10⁻⁶ cm/s, the “uSOL pH 3” value (Solubility assay (uSOL)) was 72.7 uM and the “uSOL pH 7.4” value (Solubility assay (uSOL)) was 37.8 uM. The “SGF stability t(½)” value [2] was 30.13 h.

Work on `COc1ccc(C2=NC(c3ccc(Cl)cc3)C(c3cccc(Cl)c3)N2C(=O)N2CCNC(=O)C2)c(OC(C)C)c1` (stereo not drawn) [SJ000558296-1] yielded an IC50 (hMDMX) of 15.6 µM.

Molecule `COc1cccc(C2N=C(c3ccc(OC)cc3OC(C)C)N(C(=O)N3CCNC(=O)C3)C2c2ccc(Cl)cc2)c1` (stereo not drawn) [SJ000558297-2] has an IC50 (hMDMX) of 39.4 µM.

Molecule `COc1cccc(C2C(c3ccc(Cl)cc3)N=C(c3ccc(OC)cc3OC(C)C)N2C(=O)N2CCNC(=O)C2)c1` (stereo not drawn) [SJ000558298-1] has an IC50 (hMDMX) of 2 µM.

`COc1ccc(C2N=C(c3ccc(OC)cc3OC(C)C)N(C(=O)N3CCNC(=O)C3)C2c2ccc(Cl)cc2)cc1` (stereo not drawn) [SJ000558300-1] gave an IC50 (hMDMX) of over 40 µM.

`COc1ccc(C2=NC(c3ccc(Cl)cc3)C(c3ccccc3Cl)N2C(=O)N2CCNC(=O)C2)c(OC(C)C)c1` (stereo not drawn) [SJ000558301-1] gave an IC50 (hMDMX) of over 40 µM.

`COc1ccc(C2=NC(c3ccccc3Cl)C(c3ccc(Cl)cc3)N2C(=O)N2CCNC(=O)C2)c(OC(C)C)c1` (stereo not drawn) [SJ000558302-1] showed an IC50 (hMDMX) of 9.1 µM.

With `COc1ccc(C2=NC(c3cccc(C)c3)C(c3ccc(Cl)cc3)N2C(=O)N2CCNC(=O)C2)c(OC(C)C)c1` (stereo not drawn) [SJ000558304-1] the “R % pH 3” value [1] was 42%, the Papp at 30 min, 0.05 µM [1, 3] was 72.1 ×10⁻⁶ cm/s and the “R % pH 7.4” value [1] was 79%. The Papp at 30 min, 0.05 µM [1, 4] was 867 ×10⁻⁶ cm/s, the “IC50 value against MDMX in FP assay (in words)” value (hMDMX) was “uM level” and the IC50 (hMDMX) was 9 µM. For the same molecule, the “uSOL pH 3” value (Solubility assay (uSOL)) was 66.7 uM, the “uSOL pH 7.4” value (Solubility assay (uSOL)) was 57.4 uM and the “SGF stability t(½)” value [2] was over 48 h.

For `COc1ccc(C2=NC(c3ccc(Cl)cc3)C(c3cccc(F)c3)N2C(=O)N2CCNC(=O)C2)c(OC(C)C)c1` (stereo not drawn) [SJ000558306-1], the IC50 (hMDMX) was 9.7 µM.

`COc1ccc(C2=NC(c3ccc(C)cc3)C(c3ccc(Cl)cc3)N2C(=O)N2CCNC(=O)C2)c(OC(C)C)c1` (stereo not drawn) [SJ000560615-1] gave an IC50 (hMDMX) of over 40 µM.

With `COc1ccc(C2=NC(c3ccc(Cl)cc3)C(c3ccc(C)cc3)N2C(=O)N2CCNC(=O)C2)c(OC(C)C)c1` (stereo not drawn) [SJ000560616-1] the IC50 (hMDMX) was 25 µM.
